# Test results reported in the supplement of paper PMC4967469.
# Assays:
# Experiment in all cases: Viability of human cancer cell lines after 72 h of drug (GDSC screen)
# [1] = compound: CCNc1cc(NC2CCC(O)CC2)nc(Nc2ccc3c(ccn3Cc3ccccc3)c2)n1 [CGP-082996 (CINK4)]; conditions: top dose 5.12 µM; top dose inferred
# Protocol: (§1)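 Human cancer cell lines in 384-well plates, medium with 10% serum, drug for 72 h over a 256-fold dose range (nine 2-fold or five 4-fold steps up to the top dose). Adherent lines were fixed and stained with the nucleic acid dye Syto60, suspension lines read with resazurin; signal relative to control wells, capped at 0 and 100%. One two-parameter sigmoid per drug and line, fitted in a mixed model over all curves with the slope shared within a line.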
# [2] = compound: O=C1NC(=O)c2c1c(-c1ccccc1Cl)cc1[nH]c3ccc(O)cc3c21 [Wee1 inhibitor 681640]; conditions: top dose 2 µM; top dose inferred
# Protocol: as §1
# [3] = compound: COc1cc(-c2nn([C@H]3CC[C@H](N4CCN(C(C)=O)CC4)CC3)c3ncnc(N)c23)ccc1NC(=O)c1cc2ccccc2n1C [A-770041]; conditions: top dose 5.12 µM; top dose inferred
# Protocol: as §1
# [4] = compound: COc1cc(N2CCN(C)CC2)ccc1Nc1ncc2c(n1)N(C)c1ccccc1C(=O)N2C [XMD8-85]; conditions: top dose 8 µM; top dose inferred
# Protocol: as §1
# [5] = compound: O=C(c1cc(Cc2n[nH]c(=O)c3ccccc23)ccc1F)N1CCN(C(=O)C2CC2)CC1 [Olaparib]
# Protocol: as §1
# [6] = compound: NC(=O)c1ccc(N(C(N)=O)c2c(F)cccc2F)nc1-c1ccc(F)cc1F [VX-702]; conditions: top dose 2 µM; top dose inferred
# Protocol: as §1
# [7] = compound: Cc1ccc(-n2nc(C(C)(C)C)cc2NC(=O)Nc2ccc(OCCN3CCOCC3)c3ccccc23)cc1 [BIRB 0796]; conditions: top dose 10 µM; top dose inferred
# Protocol: as §1
# [8] = compound: CC(C)=CC[C@@H](O)C1=CC(=O)c2c(O)ccc(O)c2C1=O [Shikonin]; conditions: top dose 16 µM; top dose inferred
# Protocol: as §1
# [9] = compound: Cc1cc(N2CCOCC2)cc2[nH]c(-c3c(NC[C@@H](O)c4cccc(Cl)c4)cc[nH]c3=O)nc12 [BMS-536924]
# Protocol: as §1
# [10] = compound: Cc1cccc(-c2[nH]c(C(C)(C)C)nc2-c2ccc3nccnc3c2)n1 [SB-525334]; conditions: top dose 20 µM; top dose inferred
# Protocol: as §1
# [11] = top dose 5 µM, screen: GDSC drug entry 1017, top dose inferred
# [12] = top dose 10 µM, screen: GDSC drug entry 1495
# [13] = top dose 4 µM, screen: GDSC drug entry 1091, top dose inferred
# [14] = top dose 5.12 µM, screen: GDSC drug entry 62
Cell Line,AUC [1],IC50 [1] [µM],AUC [2],IC50 [2] [nM],AUC [3],IC50 [3] [µM],AUC [4],IC50 [4] [µM],"AUC [5, 11]","IC50 [5, 11] [µM]","AUC [5, 12]","IC50 [5, 12] [µM]",AUC [6],IC50 [6] [nM],AUC [7],IC50 [7] [µM],AUC [8],IC50 [8] [nM],"AUC [9, 13]","IC50 [9, 13] [µM]","AUC [9, 14]","IC50 [9, 14] [µM]",AUC [10],IC50 [10] [µM]
"NKM-1 (acute myeloid leukaemia, suspension)",0.939,> 5.12,0.957,> 2000,0.984,> 5.12,0.877,> 8,0.853,4.08,0.836,6.89,0.89,> 2000,0.984,> 10,0.209,134,0.875,> 4,0.845,3.87,0.966,> 20
"OCI-AML2 (acute myeloid leukaemia, suspension)",0.913,4.02,0.995,> 2000,0.927,4.56,0.846,3.77,0.956,> 5,0.854,4.96,0.995,> 2000,0.995,> 10,0.268,269,0.918,3.29,0.732,1.19,0.971,> 20
"OCI-M1 (acute myeloid leukaemia, suspension)",0.992,> 5.12,0.986,> 2000,0.995,> 5.12,0.928,7.75,0.993,> 5,0.984,> 10,0.994,> 2000,0.995,> 10,0.391,542,0.817,1.59,0.65,0.746,0.916,17.1
"OMC-1 (cervix, adherent)",0.972,> 5.12,0.969,> 2000,0.986,> 5.12,0.946,> 8,0.988,> 5,0.969,> 10,0.988,> 2000,0.978,> 10,0.594,1840,0.945,> 4,0.935,> 5.12,0.966,> 20
"OPM-2 (myeloma, suspension)",0.969,> 5.12,0.993,> 2000,0.974,> 5.12,0.805,3.17,0.994,> 5,0.973,> 10,0.994,> 2000,0.994,> 10,0.314,338,0.893,3.22,0.578,0.502,0.972,> 20
"P30-OHK (lymphoblastic leukaemia, suspension)",0.958,> 5.12,0.947,> 2000,0.978,> 5.12,0.965,> 8,0.972,> 5,0.814,4.33,0.986,> 2000,0.991,> 10,0.252,227,0.751,1.13,0.947,> 5.12,0.824,9.37
"P31-FUJ (acute myeloid leukaemia, suspension)",0.996,> 5.12,0.995,> 2000,0.993,> 5.12,0.995,> 8,0.981,> 5,0.982,> 10,0.994,> 2000,0.996,> 10,0.579,1560,0.99,> 4,0.987,> 5.12,0.994,> 20
"P32-ISH (Burkitt lymphoma, suspension)",0.892,3.42,0.994,> 2000,0.792,1.71,0.844,3.75,0.995,> 5,0.987,> 10,0.991,> 2000,0.995,> 10,0.361,457,0.972,> 4,0.915,4.17,0.911,15.6
"PF-382 (T-cell lymphoblastic leukaemia, suspension)",0.842,2.95,0.986,> 2000,0.889,4.56,0.794,3.19,0.976,> 5,0.981,> 10,0.985,> 2000,0.991,> 10,0.441,706,0.99,> 4,0.954,> 5.12,0.953,> 20
"PSN1 (pancreas, adherent)",0.936,> 5.12,0.942,> 2000,0.698,1.03,0.942,> 8,0.973,> 5,0.937,> 10,0.987,> 2000,0.988,> 10,0.929,> 16000,0.942,> 4,0.528,0.376,0.938,> 20
"RCC10RGB (kidney, adherent)",0.861,> 5.12,0.857,> 2000,0.863,> 5.12,0.785,> 8,0.968,> 5,0.948,> 10,0.953,> 2000,0.944,> 10,0.569,1850,–,–,0.769,4.39,0.882,> 20
"REH (B-cell leukaemia, suspension)",0.901,> 5.12,0.95,> 2000,0.938,> 5.12,0.733,2.24,0.979,> 5,0.894,> 10,0.967,> 2000,0.987,> 10,0.194,129,0.733,1.11,0.928,> 5.12,0.935,> 20
"RF-48 (stomach, adherent)",0.957,> 5.12,0.981,> 2000,0.85,4.62,0.949,> 8,0.964,> 5,0.979,> 10,0.981,> 2000,0.985,> 10,0.423,601,0.924,> 4,0.896,> 5.12,0.728,6.08
"ROS-50 (B-cell leukaemia, suspension)",0.897,> 5.12,0.973,> 2000,0.95,> 5.12,0.797,5.01,0.969,> 5,0.966,> 10,0.971,> 2000,0.985,> 10,0.498,986,0.978,> 4,0.97,> 5.12,0.856,> 20
"RPMI-6666 (Hodgkin lymphoma, suspension)",0.901,> 5.12,0.965,> 2000,0.698,1.3,0.822,5.97,0.954,> 5,0.938,> 10,0.945,> 2000,0.982,> 10,0.436,644,0.897,> 4,0.813,3.48,0.878,> 20
"Raji (Burkitt lymphoma, suspension)",0.921,> 5.12,0.987,> 2000,0.945,> 5.12,0.903,> 8,0.985,> 5,0.964,> 10,0.987,> 2000,0.99,> 10,0.521,1140,0.972,> 4,0.988,> 5.12,0.92,> 20
"Ramos-2G6-4C10 (Burkitt lymphoma, suspension)",0.943,> 5.12,0.964,> 2000,0.909,> 5.12,0.881,6.27,0.934,> 5,0.99,> 10,0.902,1960,0.991,> 10,0.314,331,0.947,> 4,0.978,> 5.12,0.963,> 20
"SCH (stomach, adherent)",0.946,> 5.12,0.923,> 2000,0.986,> 5.12,0.987,> 8,0.953,> 5,0.827,6.78,0.977,> 2000,0.984,> 10,0.9,> 16000,0.973,> 4,0.987,> 5.12,0.988,> 20
"SF539 (glioma, adherent)",0.853,3.4,0.86,1410,0.965,> 5.12,0.846,5,0.931,> 5,0.896,> 10,0.987,> 2000,0.986,> 10,0.487,925,0.964,> 4,0.956,> 5.12,0.987,> 20
"SK-N-FI (neuroblastoma, adherent)",0.983,> 5.12,0.927,> 2000,0.972,> 5.12,0.966,> 8,0.988,> 5,0.988,> 10,0.984,> 2000,0.943,> 10,0.653,2650,0.713,0.992,0.986,> 5.12,0.865,17.6
"SK-UT-1 (soft tissue, adherent)",0.964,> 5.12,0.891,1970,0.937,> 5.12,0.846,5.09,0.966,> 5,0.878,8.61,0.984,> 2000,0.987,> 10,0.09,< 62.5,0.972,> 4,0.95,> 5.12,0.989,> 20
"ST486 (Burkitt lymphoma, suspension)",0.856,3.39,0.957,> 2000,0.889,4.65,0.816,3.8,0.987,> 5,0.966,> 10,0.987,> 2000,0.99,> 10,0.105,64.2,0.989,> 4,0.952,> 5.12,0.793,7.97

# The IC50 comes from the fitted curve, where viability falls to half of the control; where the fit passes the top or lowest dose, that dose stands as a limit. AUC is the area under the same curve over the 256-fold range up to the top dose, as a fraction; values near 1 show little effect. Where the top dose is marked as inferred, it was derived from the fitted curves, not read from the paper. For some of these results: An entry number marks a drug with two screens in the source, which often give different values.
